Measured values taken from PubChem BioAssay AID624330 (Southern Research Specialized Biocontainment Screening …, 2012).
Among all 340,000 compounds or so, about 2,100 (0.62%) were called active. Inconclusive means that the source gave no clear call. Such entries were picked first, then a sample of the others.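 Rule for the calls: active = first-screen hits whose inhibition reached a set limit at any dose in the follow-up dose series; inconclusive = inhibition above the set first-screen limit but never retested; inactive = the rest.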

Biological target: Rac GTPase-activating protein 1 (Homo sapiens) (UniProt Q9H0H5)
Chain of UniProt Q9H0H5 (Q9H0H5 whole entry, looked up): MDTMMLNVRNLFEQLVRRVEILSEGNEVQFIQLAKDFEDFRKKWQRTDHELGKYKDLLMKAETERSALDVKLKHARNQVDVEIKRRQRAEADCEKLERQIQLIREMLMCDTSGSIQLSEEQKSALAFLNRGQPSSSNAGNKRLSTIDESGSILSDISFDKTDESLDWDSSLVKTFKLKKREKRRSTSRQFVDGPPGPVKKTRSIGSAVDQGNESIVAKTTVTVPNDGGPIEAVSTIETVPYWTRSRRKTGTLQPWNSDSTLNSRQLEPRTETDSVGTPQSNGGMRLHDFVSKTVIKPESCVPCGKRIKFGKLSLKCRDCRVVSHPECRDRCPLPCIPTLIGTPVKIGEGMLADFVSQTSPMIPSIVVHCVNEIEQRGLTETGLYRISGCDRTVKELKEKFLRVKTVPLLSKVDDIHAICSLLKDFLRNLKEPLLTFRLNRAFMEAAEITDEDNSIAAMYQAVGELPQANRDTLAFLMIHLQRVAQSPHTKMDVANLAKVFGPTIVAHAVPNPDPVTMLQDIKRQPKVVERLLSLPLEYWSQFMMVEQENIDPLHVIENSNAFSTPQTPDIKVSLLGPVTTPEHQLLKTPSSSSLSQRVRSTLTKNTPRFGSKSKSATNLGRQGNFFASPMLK
Experiment: blockers of MgcRacGAP-driven Rac1 GTP hydrolysis – biochemical, ADP Hunter fluorescence, primary and confirmatory, confirmation (AID 624330);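 note: fluorescence reports GDP produced by GAP-driven GTP hydrolysis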
Conditions: MgcRacGAP-stimulated Rac1 GTP hydrolysis, at 30 µM, hits give high values, GST-tagged Rac1 F28L mutant substrate

| Compound | inhibition |
| --- | --- |
| Cc1ccc(O)c(N)c1 | inconclusive: 40.6% |
| Cc1cc(-c2n[nH]c(=S)n2/N=C/C=C/c2ccco2)n[nH]1 | inconclusive: 32.8% |
| CCc1ccc(CNc2ccc3c(c2)ncn3C)cc1 | inconclusive: 33.4% |
| COc1cc(/C=C2/SC(=Nc3ccc(O)cc3)NC2=O)cc(OC)c1O | inconclusive: 32.3% |
| Oc1c(Br)cc(/C=N/n2c(-c3ccccc3)n[nH]c2=S)c(O)c1Br | inconclusive: 57.8% |
| c1ccc(CCNc2ccc3c(c2)Cc2ccccc2-3)nc1 | inconclusive: 35.8% |
| Cc1cc(NS(=O)(=O)c2ccc(Nc3nc(-c4sc(N)nc4C)cs3)cc2)no1 | inconclusive: 63.7% |
| COc1ccc2nc(-c3ccco3)c(-c3ccco3)nc2c1 | inconclusive: 31.9% |
| CN1c2ccc(C=O)c3c(C=O)ccc(c23)N(C)C1(C)C | inconclusive: 35.1% |
| Cc1c(N=C2C(=O)Nc3ccccc32)c(=O)n(-c2ccccc2)n1C | inactive: 1.01% |
| C#CCOCCOCCOCCNc1nc(N2CCN(C(=O)CCCCCCCCCCNC(=O)[C@@H](CCC(=O)O)n3cc(CCCCCN)nn3)CC2)nc(N2CCN(C(=O)CCCCCCCCCCNC(=O)[C@H](CO)n3cc(CCCCCN)nn3)CC2)n1 | inconclusive: 34.6% |
| COc1cc(C2OCC3C(c4cc(OC)c(OC)c(OC)c4)OCC23)cc(OC)c1OC (stereo unspecified) | inactive: 3.17% |
| Cc1ccc2cn[nH]c2c1N | inconclusive: 48.3% |
| CN1C2CCC1/C(=C\c1ccccc1)C(=O)/C2=C\c1ccccc1 | inactive: 12.8% |
| Cn1c(=O)[nH]c(=O)c2c1nc(Sc1ccccc1)n2CCc1ccccc1 | inactive: 0.88% |
| O=C(/C=C/c1cccnc1)/C=C/c1cccnc1 | inconclusive: 36.1% |
| COc1ccc(CN(C)Cc2c(O)ccc3ccccc23)cc1 | inactive: 9.58% |
| O=C(N/N=C/c1ccc(O)cc1)/C(=C/c1ccccc1)CCO | inconclusive: 83.2% |
| CCN(Cc1ccccc1)C(=O)C1CCN(Cc2ccc(OC)c(OC)c2OC)CC1 | inconclusive: 32.6% |
| COc1cc(-c2nnc(SCc3cc(=O)oc4cc(O)c(O)cc34)o2)cc(OC)c1OC | inconclusive: 43.2% |
| O=C(NC1CCN(C(=O)N2c3ccccc3Sc3ccccc32)CC1)c1ccco1 | inactive: 1.56% |
| COC(=O)C1CC(=O)N(c2ccc(C)cc2)C1 (stereo unspecified) | inactive: 1.9% |
| C#CCOCCOCCOCCNc1nc(N2CCN(C(=O)CCCCCCCCCCNC(=O)[C@@H](CCC(=O)O)n3cc(CCCCCN)nn3)CC2)nc(N2CCN(C(=O)CCCCCCCCCCNC(=O)[C@H](CCCCN)n3cc(C[C@@H](C)CC)nn3)CC2)n1 | inconclusive: 46.6% |

| Compound | inhibition |
| --- | --- |
| CN1CCN(CCCCOc2ccccc2C=O)CC1 | inconclusive: 34.7% |
| COc1cc(/C=N/Nc2ccc(C(F)(F)F)cn2)cc(OC)c1O | inactive: 13% |
| CCn1c(SCC(=O)c2ccc(O)c(O)c2)nnc1-c1ccccc1 | inconclusive: 52.5% |
| Cc1cc(C)n(C(=O)CNc2cccc(Cl)c2C)n1 | inactive: 5.52% |
| COCC(=O)N(Cc1cc2cc(C)ccc2[nH]c1=O)c1ccc(C)c(C)c1 | inactive: 16.2% |
| COc1ccc(NC2CCCN(C(=O)CCC(=O)c3ccc(F)cc3)C2)cc1 (stereo unspecified) | inconclusive: 70.8% |
| CN(C)CCNC(=O)c1cccc2nc3c(ccc4ccccc43)nc12 | inconclusive: 35.4% |
| c1coc(CNc2nc(-c3ccncc3)cs2)c1 | inactive: 5.25% |
| Oc1ccccc1N=Cc1sc2ccccc2c1Cl | inconclusive: 35.5% |
| CCN(CC)c1ccc(NC(=O)c2c(C)noc2C)cc1 | inconclusive: 68.9% |
| Clc1cccc(OCCCN2CCCC2)c1Cl | inactive: 19% |
| CCC1=NN(C(=O)Cc2ccccc2)C(O)(c2ccncc2)C1 (stereo unspecified) | inactive: 5.64% |
| COc1ccc(C(CNCC(O)COc2c(C)ccc(C)c2C)N(C)C)cc1 (stereo unspecified) | inconclusive: 34.6% |
| CC(=O)c1ccc(OCc2cc(C(=O)N3CC[C@@H]4CCCC[C@H]4C3)no2)cc1 | inactive: 8.61% |
| CCC(SC1=N/C(=C/c2ccccc2OC)C(=O)N1c1ccccc1)C(=O)Nc1cc(C)on1 (stereo unspecified) | inactive: 12.8% |
| Oc1cccc(/C=N/N=C/c2cccc(O)c2O)c1O | inconclusive: 48.1% |
| COc1cc(-c2csc(C)n2)ccc1O | inconclusive: 89.4% |
| C#CCOCCOCCOCCNc1nc(N2CCN(C(=O)CCCCCCCCCCNC(=O)Cn3cc(CCCCCN)nn3)CC2)nc(N2CCN(C(=O)CCCCCCCCCCNC(=O)Cn3cc(CCCCCN)nn3)CC2)n1 | inconclusive: 67.9% |
| COc1cc(/C=C2\SC(=O)N(CCN)C2=O)ccc1OS(=O)(=O)c1cc(C)ccc1C | inconclusive: 54.8% |
| C/C(CC(=O)Nc1ccc(N(C)C)cc1)=N\NC(=O)c1ccccc1F | inconclusive: 42.2% |
| O=C(Cn1ncn2c(cc3ccccc32)c1=O)NCCCc1ccccc1 | inactive: 1.38% |
| O=C(COC(=O)/C=C/c1cccc(F)c1)Nc1ccccc1 | inactive: -19.5% |
| O=C(NCC(c1ccco1)N1CCCC1)c1cccc(NS(=O)(=O)c2ccccc2)c1 (stereo unspecified) | inactive: 7.02% |

| Compound | inhibition |
| --- | --- |
| COc1ccc(/C=C2/N=C3CCCCCN3C2=O)cc1 | inactive: 4.99% |
| O=S1OC(c2ccccc2)c2cc(Cl)ccc21 (stereo unspecified) | inconclusive: 43.4% |
| CCCCn1c(=O)c2ccccc2n2c(=S)[nH]nc12 | inconclusive: 96.3% |
| CCN(CC)c1ccc(NC(=O)c2ccc(Cl)nc2)cc1 | inconclusive: 35.5% |
| CC(C)c1nnc(NC(=O)c2cccc(-n3cnnn3)c2)s1 | inactive: 10.5% |
| CC(=O)N1CCN(c2ccc(NC(=O)c3ccccc3)cc2)CC1 | inactive: 11.9% |
| CCCCCN=C(N)N/N=C/c1c[nH]c2ccc(OC)cc12 | inconclusive: 37.2% |
| NC(=Nc1ccc(N)cc1)C(N)=Nc1ccc(N)cc1 | inconclusive: 45.1% |
| Cc1[nH]n(-c2ccccc2)c(=O)c1-c1cccc(Cl)c1 | inconclusive: 33.1% |
| CCOc1ccc(N=Cc2ccccc2O)cc1 | inactive: 4.12% |
| N=C1S/C(=C\c2ccco2)C(=O)N1c1nccs1 | inconclusive: 33.4% |
| CCS(=O)(=O)N1CCC(N2CCC(C)CC2)CC1 | inconclusive: 35% |
| CC(C)CCn1c(=O)c2ccccc2n2c(=S)[nH]nc12 | inconclusive: 103% |
| CCOc1ccc(NCc2cccn2-c2nnc(N3CCC(C(=O)NCCCN4CCCCC4C)CC3)s2)cc1 (stereo unspecified) | inconclusive: 33.6% |
| COc1ccc(N2CCN(C(CNC(=O)c3cccc(Cl)c3)c3cccnc3)CC2)cc1 (stereo unspecified) | inconclusive: 39.2% |
| Cc1sc2ncnc(Nc3ccccc3)c2c1C | inactive: 4.64% |
| COc1cc(/C=N/n2c(-c3n[nH]c4c3CCC4)n[nH]c2=S)ccc1O | inconclusive: 70.2% |
| CN1/C(=C/C=C/c2n(C)c3cc([N+](=O)[O-])c([N+](=O)[O-])cc3[n+]2C)C(C)(C)c2ccccc21 | inconclusive: 41.7% |
| COc1c2ccoc2nc2c(OC)c(O)ccc12 | inconclusive: 45.3% |
| N#Cc1ccsc1NC(=O)CN1CCN(c2ccc(O)cc2)CC1 | inconclusive: 61.2% |
| N#CC(C#N)=C(N)/C(C#N)=C/c1cc(O)c(O)c(O)c1 | inconclusive: 38.6% |
| Cc1ccc(NC2(C#N)CCCC2)cc1 | inactive: 4.1% |
| O=C(CN1CCOCC1)Nc1cccc(S(=O)(=O)N2CCCCCC2)c1 | inactive: 4.7% |

| Compound | inhibition |
| --- | --- |
| COc1cccc(C(=O)N2CCN(C3CCC(c4ccccc4)CC3)CC2)c1OC (stereo unspecified) | inconclusive: 32.7% |
| C[N+]1(CCCCSc2ccc(O)cc2)CCCCC1 | inconclusive: 121% |
| Nc1ccc2nc(-c3cccc(-c4nc5ccc(N)cc5[nH]4)n3)[nH]c2c1 | inactive: 16.5% |
| CCN(C(=O)c1coc(=O)c(Br)c1)c1ccc2c(c1)OCO2 | inconclusive: 35.8% |
| Cc1ccc(/C=N/n2c(-c3ccco3)n[nH]c2=S)cc1 | inconclusive: 32.5% |
| Cc1nn(C)c(=S)[nH]c1=S | inactive: -2.65% |
| COc1cc([C@@H]2OC[C@@H]3[C@H]2CO[C@@H]3c2ccc3c(c2)OCO3)ccc1O | inactive: 15.6% |
| c1coc(CNC2CCCCC2)c1 | inconclusive: 33.8% |
| Nc1ccc(O)cc1C(=O)OCC(=O)C12CC3CC(CC(C3)C1)C2 | inconclusive: 35.7% |
| COCCNC(=S)N1CCN(C)CC1 | inconclusive: 33.6% |
| CCOc1cc(/C=N/Nc2nncc(-c3ccccc3)n2)ccc1O | inactive: 13.6% |
| CCN1/C(=C/C(C)=C/c2sc3ccccc3[n+]2CC)Sc2ccccc21 | inconclusive: 99.9% |
| O=C1CC(NS(=O)(=O)c2cccnc2)CN1c1cccc(F)c1 (stereo unspecified) | inactive: 6.2% |
| Cc1ccsc1/C=N/n1c(-c2cccnc2)n[nH]c1=S | inconclusive: 32.6% |
| O=CNc1ccc(OC(=O)c2cncc(Br)c2)cc1 | inconclusive: 35.9% |
| O=C(CSc1nnc(-c2cccnc2)o1)Nc1cccc(Cl)c1 | inactive: 4.31% |
| CCCCC1(C)OC(=O)C(=Cc2ccc(-c3ccc(Cl)c(C(=O)O)c3)o2)C(=O)O1 (stereo unspecified) | inconclusive: 58.9% |
| Cc1ccccc1CNCc1ccc2c(c1)OCO2 | inactive: 25.3% |
| COc1ccc(-c2oc3cc(O)c(OC)c(O)c3c(=O)c2OC)cc1O | inactive: 26.4% |
| COc1ccc2c(c1)c(=Cc1ccc(N(C)C)cc1)c1cc(-c3ccccc3)[n+](C)n12 | inconclusive: 98.4% |
| Cc1ccc(-c2nc(N=Nc3ccc(O)cc3)n[nH]2)cc1 | inconclusive: 35% |
| CCc1ccc2c(CN(C)Cc3ccccc3OC)cc(=O)oc2c1 | inconclusive: 33.9% |
